Hit rate of the full screen: of about 310,000 compounds, about 14,000 (4.5%) showed an effect of 50% or more. The effect is printed as a negative number. The list shows a part of the results.

These results are taken from paper PMC4336329 (PLoS ONE, 2015).
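Note: peak tail current of the secondary pulse compared with the same well before compound.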

The target in this experiment is human ether-à-go-go-related gene (hERG) potassium channel (human, UniProt Q12809). In words: primary screen, population patch clamp on CHO cells stably expressing hERG.
Chain of human ether-à-go-go-related gene (hERG) potassium channel (Q12809 whole entry, looked up): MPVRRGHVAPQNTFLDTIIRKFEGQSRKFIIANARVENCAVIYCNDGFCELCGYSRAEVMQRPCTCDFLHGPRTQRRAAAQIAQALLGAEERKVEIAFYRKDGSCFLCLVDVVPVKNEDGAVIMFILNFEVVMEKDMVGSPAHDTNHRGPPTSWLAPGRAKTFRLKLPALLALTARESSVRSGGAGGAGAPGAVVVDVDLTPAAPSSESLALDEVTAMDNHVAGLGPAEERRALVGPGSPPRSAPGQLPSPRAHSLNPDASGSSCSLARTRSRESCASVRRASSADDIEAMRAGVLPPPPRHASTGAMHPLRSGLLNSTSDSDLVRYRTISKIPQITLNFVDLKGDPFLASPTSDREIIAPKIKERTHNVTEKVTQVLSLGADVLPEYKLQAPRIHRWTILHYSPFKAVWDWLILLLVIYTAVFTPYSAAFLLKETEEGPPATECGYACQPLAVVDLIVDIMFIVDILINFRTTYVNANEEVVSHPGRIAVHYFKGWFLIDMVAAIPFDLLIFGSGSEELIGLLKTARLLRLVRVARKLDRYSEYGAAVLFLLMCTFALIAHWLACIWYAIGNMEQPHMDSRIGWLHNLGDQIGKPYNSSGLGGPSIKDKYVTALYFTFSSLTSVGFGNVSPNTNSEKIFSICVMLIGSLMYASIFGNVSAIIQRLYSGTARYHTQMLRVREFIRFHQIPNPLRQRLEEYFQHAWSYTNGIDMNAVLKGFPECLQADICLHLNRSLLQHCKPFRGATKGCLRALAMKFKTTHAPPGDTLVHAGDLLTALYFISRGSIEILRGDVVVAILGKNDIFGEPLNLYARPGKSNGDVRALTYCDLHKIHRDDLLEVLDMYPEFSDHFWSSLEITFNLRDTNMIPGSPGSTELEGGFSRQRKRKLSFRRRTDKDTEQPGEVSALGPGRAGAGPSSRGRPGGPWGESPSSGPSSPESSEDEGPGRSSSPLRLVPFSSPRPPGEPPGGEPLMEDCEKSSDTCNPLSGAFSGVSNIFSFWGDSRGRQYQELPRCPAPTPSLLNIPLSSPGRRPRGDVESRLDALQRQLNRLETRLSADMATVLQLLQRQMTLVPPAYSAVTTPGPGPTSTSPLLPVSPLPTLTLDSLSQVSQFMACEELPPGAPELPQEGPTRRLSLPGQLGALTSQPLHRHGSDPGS
For the compound `Cc1cc(=O)[nH]c(NCc2ccc(Cl)cc2)n1`, the “hERG current change (%, negative = inhibition) at 10uM” value was determined as 12.3%.
As for `Cc1cc(C)n(-c2nc3sc4c(c3c3nnc(SC(C)C)n23)CC(C)(C)OC4)n1`, the “hERG current change (%, negative = inhibition) at 10uM” value was -8.81%.
With `Cc1ccc2cc(CN(Cc3ccc(F)cc3)Cc3nnnn3C3CCCC3)c(=O)[nH]c2c1` the figure was -15.9%; with `COc1cccc(NC(=O)C2CCN(S(=O)(=O)c3ccc4[nH]c(=O)ccc4c3)CC2)c1`, -11.3%.
With `O=C(Nc1ccc(-n2cnnn2)cc1)C1CCCCC1`, the “hERG current change (%, negative = inhibition) at 10uM” value is recorded as -4.61%.
`O=C(CSCc1nc2c(nnn2Cc2ccc(F)cc2)c(=O)[nH]1)Nc1c(Cl)cc(Cl)cc1Cl`: the “hERG current change (%, negative = inhibition) at 10uM” value was 27.3%.
As to `Cc1nnc(SCC(=O)N(CCC#N)c2ccc3c(c2)OCCO3)s1`, the “hERG current change (%, negative = inhibition) at 10uM” value amounted to 3.94%.
Regarding `COc1cccc(-c2nc3c(c(SCC(=O)N4CCOCC4)n2)Cc2c(CO)cnc(C)c2O3)c1`, the “hERG current change (%, negative = inhibition) at 10uM” value is given as 16.6%.
With `Cc1c(C(=O)Nc2ccc3c4c(cccc24)CC3)cccc1[N+](=O)[O-]` the figure was 9.1%; with `CCc1nnc(NC(=O)c2ccncc2)s1`, 2.72%; with `Cc1ccc(NC(=O)N2CCC(c3nc4c(nnn4Cc4c(F)cccc4Cl)c(=O)[nH]3)CC2)cc1`, -1.31%.
Turning to `CC1=C(C(=O)OCc2ccccc2)C(c2cccs2)NC(=O)N1CCCC(=O)O` (centres unmarked), the “hERG current change (%, negative = inhibition) at 10uM” value is reported as 12.3%.
The value for `O=C(Nc1nc2c(F)cc(F)cc2s1)C1CC1` was 6.36%; that for `O=C(c1ccco1)N1CCN(C(=S)NCc2ccc(F)cc2)CC1` was -53.1%; that for `O=C(O)CN1C(=O)C2C3CC(C2C1=O)C1C(c2ccc(Cl)cc2)c2sc(=O)[nH]c2SC31` (centres unmarked) was 0.367%.
The value for `O=S(=O)(c1ccc(SCCOc2ccc(Cl)cc2)nc1)N1CCCC1` was -13%; that for `CC(C)N(Cc1ccccc1)C(=O)COC(=O)c1ccc2c(c1)OCCO2` was 1.41%; that for `Cn1ccc(=S)c2ccccc21` was 11.1%.
As for `COc1ccc(CCNS(=O)(=O)c2cn(C)nc2C)cc1`, the “hERG current change (%, negative = inhibition) at 10uM” value is reported as 17.2%.
With `Cc1ccccc1NC(=O)c1sc(NC(=O)COc2ccccc2)c(C#N)c1C` the figure was 9.18%; with `COc1ccc(OCC(O)Cn2c(Nc3ccccc3)nc3c2c(=O)n(C)c(=O)n3C)cc1` (centres unmarked), 2.94%.
The value for `O=C(c1csc2ccccc12)N1CCCCCC1` was 8.81%; that for `COC(=O)c1[nH]c2ccc(C)cc2c1NC(=O)CCN1CCN(Cc2ccc3c(c2)OCO3)CC1` was -66.1%; that for `Cc1ccccc1CS(=O)(=O)CCC(=O)O` was 0.0412%.
With `O=C(NCCCl)Nc1ccccc1OCCOc1ccccc1NC(=O)NCCCl` the figure was -0.276%; with `C=CCn1c(SCC(N)=O)nnc1-c1cc(Br)ccc1O`, -24.4%.
On to `COC(=O)CCCC(=O)N1CCCC(CNS(=O)(=O)c2ccc(OC)cc2)C1` (centres unmarked), for which the “hERG current change (%, negative = inhibition) at 10uM” value was determined as 32.1%.
With `CC(C)n1c(O)c(C=NCc2cccnc2)c(=O)[nH]c1=S` the figure was -9.13%.
Turning to `CCN(C(=O)CCCC(=O)N(CC)c1ccccc1)c1ccccc1`, the “hERG current change (%, negative = inhibition) at 10uM” value is on record as 20.4%.
Turning to `Cc1c(Nc2nc3ccccc3nc2NS(=O)(=O)c2cccc(Cl)c2)c(=O)n(-c2ccccc2)n1C`, the “hERG current change (%, negative = inhibition) at 10uM” value is recorded as -2.18%.
Take `Cc1ccc(N2CC(C(=O)N3CCN(c4ccccc4)CC3)CC2=O)cc1` (centres unmarked): the “hERG current change (%, negative = inhibition) at 10uM” value is on record as -17.6%.
With `Cc1cc(C)c(C#N)c(SCc2ccccc2)n1` the figure was 11.2%; with `Cc1occc1C(=O)Nc1ccc([N+](=O)[O-])cc1Br`, 18.9%.
Regarding `COc1ccc(C2=NS(=O)(=O)N(C)C(C(=O)NC3CCCC3)=C2)cc1OC`, the “hERG current change (%, negative = inhibition) at 10uM” value was -17.5%.
On to `CC(C)(C)c1cc(NC(=O)COC(=O)c2ccc3c(=O)n4c(nc3c2)CCC4)n(-c2ccccc2)n1`, for which the “hERG current change (%, negative = inhibition) at 10uM” value is reported as -24.9%.
For `CN1CCN(S(=O)(=O)c2cccc(C(=O)N(C)C(c3ccccc3)c3ccccc3)c2)CC1`, the “hERG current change (%, negative = inhibition) at 10uM” value is reported as -4.72%.
The value for `CCOC(=O)CCc1c(C)nc(-n2[nH]c(C)c(CCO)c2=O)[nH]c1=O` was 21.6%; that for `Cc1ccc2nc(NCCNC(=O)c3ccccc3)c(C#N)cc2c1` was -0.918%.
Regarding `Cc1cc(C)nc(N(C#N)Cc2cccc(Cl)c2)n1`, the “hERG current change (%, negative = inhibition) at 10uM” value is on record as -4.53%.
On to `O=C(O)CN1C(=O)CCS(=O)c2ccccc21` (centres unmarked), for which the “hERG current change (%, negative = inhibition) at 10uM” value is given as 8.68%.
As for `O=C(COC(=O)c1ccc(O)cc1O)c1ccc(Cl)cc1`, the “hERG current change (%, negative = inhibition) at 10uM” value is on record as 15.9%.
Turning to `CCOc1cc(/C=N/NC(=O)CN2CCOCC2)ccc1OCc1ccccc1`, the “hERG current change (%, negative = inhibition) at 10uM” value is -9.58%.
Take `CC(=O)c1ccc(S(=O)(=O)NC2CC(=O)N(c3ccc(C)c(C)c3)C2)cc1` (centres unmarked): the “hERG current change (%, negative = inhibition) at 10uM” value was -21.4%.
The value for `CC1CC(C)(C)NC(=S)N1CC(=O)NCc1ccc(Cl)cc1` (centres unmarked) was -11.3%; that for `CCc1ccc(CN(C(=O)c2oc3ccccc3c2C)C2CCS(=O)(=O)C2)cc1` (centres unmarked) was -19.7%.
The value for `COc1ccc([C@H]2CC(=O)C=C(c3ccc(Cl)cc3C)C2)cc1` was 4.03%; that for `O=C1CS/C(=N\c2ccccn2)N1C1CCCCC1` was 13.7%.
Regarding `COc1ccc(NC(=O)CN2CCCN(S(=O)(=O)c3ccc(F)cc3)CC2)c(OC)c1`, the “hERG current change (%, negative = inhibition) at 10uM” value is given as -54.6%.
As to `CCC(=O)N(CCC1(C(C)C)CCOC(C)(C)C1)Cc1ccco1` (centres unmarked), the “hERG current change (%, negative = inhibition) at 10uM” value worked out at 5.86%.
For `Cc1ccc(C(=O)Oc2cccc(-n3cnnn3)c2)cc1`, the “hERG current change (%, negative = inhibition) at 10uM” value was determined as 9.55%.
With `CC(/C=C/c1ccccc1)=N/NC(=O)c1cnccn1` the figure was 2.83%; with `COc1cccc(C2/C(=C(/O)c3ccc4c(c3)CC(C)O4)C(=O)C(=O)N2CCCn2ccnc2)c1` (centres unmarked), 0.887%.
Consider `CCCN(CC(=O)Nc1ccc(Cl)cc1Cl)C(=O)/C=C/c1cccc([N+](=O)[O-])c1`, for which the “hERG current change (%, negative = inhibition) at 10uM” value was -15.6%.
The value for `COc1ccc(N2CCN(C(=O)c3cc(-c4ccc(F)cc4)[nH]c3C)CC2)cc1` was -67.4%; that for `CC(C)CC(=O)NC(=S)N1CCCCCC1` was 10.5%.
The value for `Cc1ccccc1-c1cc(C(=O)Nc2nc3c(s2)CCCC3)c2ccccc2n1` was 13.4%.
